# Laboratory results reported in ChEMBL document CHEMBL4888484, “Replenishing the malaria drug discovery pipeline: Screening and hit evaluation of the MMV Hit Generation Library 1 (HGL1) against asexual blood stage Plasmodium falciparum ,using a nano luciferase reporter read-out” (2022).
# About 540 (0.36%) of roughly 150,000 compounds showed an effect of 50% or more. This is one part of the list.
# Test system: Plasmodium falciparum
# Test: Primary screen in NF54 nanoGlo assay, in single point, at 2uM, 72h; a lower Z score goes with more inhibition
# Type: functional, Erythrocyte
# Details: timepoint 72 hour
SMILES,% Inhibition,Z score
CCc1nccn1CCCNC(=O)N(C)Cc1nc2cc(Cl)ccc2[nH]1,-3%,0.34
COCC[C@]1(NCc2c(C)nc3scc(C4CC4)n23)CCOC1,-5%,0.97
Cc1cc(C)n(CCNC(=O)c2ccncc2)c(=O)n1,1%,-0.19
O=C(NCCCOc1cccnc1)c1cn2c3c(cccc3c1=O)CC2,-7%,1.15
Cc1oc(C(C)C)cc1C(=O)N(C)Cc1ncon1,29%,-3.32
COc1ccc(OC)c([C@H]2N(Cc3ccc(F)cc3)CCCN2Cc2ccccc2Cl)c1,-3%,0.37
CCOc1cc(CNc2cccc3ccccc23)cc(Br)c1OCC(=O)NC(C)(C)C,56%,-9.96
COc1ccc(CN2CC(C(=O)O)C2)c2c(OC)cccc12,-14%,1.38
COCCC(=O)NC1CCC(CO)CC1 (stereo not given),-4%,0.7
COc1cc(O)ccc1-c1nccn1[C@H]1CCN(Cc2ccccc2)C1,-7%,1.57
CCN1C[C@@H](CN(C)C(=O)c2cn(C(c3ccccc3)c3ccccc3)nn2)CC1=O,-16%,2.7
O=C(CN1CCCCc2cc(Br)ccc21)N1CCC1,3%,-0.44
CCS(=O)(=O)NCCNC(=O)c1cc(C(=O)OC)ccn1,-16%,1.84
Cc1cc(N2CCOC(C)C2)nc(N2CCOC(C)C2)c1C#N (stereo not given),-6%,1.19
CC(C)(C)C(=O)[C@H](C#N)c1ccccn1,-2%,0.34
CCOc1ncccc1-c1nc(CCNC(=O)OC(C)(C)C)no1,-15%,1.6
O=C(CCC1CCCCC1)N1CC[C@H](n2ccnn2)C1,-1%,0.18
Cc1ccc(CS(=O)(=O)N[C@@]23COC[C@@H]2C3)cc1,0%,-0.08
O=S1(=O)CCC(Nc2nc3ccccc3s2)CC1,-13%,2.43
C=Cc1ccc(Cn2cc(C(=O)c3ccccc3)c(=O)c3ccc(C)nc32)cc1,-10%,1.26
Cc1cnc([C@@H](NCc2nnc(-c3cccs3)o2)C2CC2)s1,-6%,0.64
Cc1ccc2nc(CN3CCS(=O)(=O)C(C)C3C)cn2c1 (stereo not given),-13%,1.17

SMILES,% Inhibition,Z score
CCOc1ccc2c(c1)C=C(C(=O)NC[C@H](C)N1CCOCC1)CO2,-7%,1.44
CN(C)c1cc(NC(=O)c2cnn3c2CCC3)cc(C(F)(F)F)c1,-2%,0.22
CCO[C@@H](C)C(=O)NCc1cc(CC)no1,-4%,0.73
NS(=O)(=O)C1(CNc2ccncc2C(F)(F)F)CCC1,0%,-0.02
CN(C)c1cc(C(=O)NC2CCN(S(C)(=O)=O)CC2)ccn1,-11%,1.16
Cc1ccccc1N1CCN(C(=O)c2ccc3ncnc(N4CCCC4)c3c2)CC1,1%,-0.19
CN1C(=O)C2(CCN(C(=O)COc3ccccc3)CC2)C[C@H]1C(=O)NC1CCCC1,-8%,0.98
Cc1cc(C(=O)N[C@H]2CN(S(C)(=O)=O)C[C@@H]2C(C)C)no1,-6%,0.55
CC(CS(C)(=O)=O)NC1CCCCC1Cc1ccccc1 (stereo not given),3%,-0.54
O=C(Cn1nc(N2CCCCCC2)c2ccccc2c1=O)Nc1ccc(Cl)cc1,-2%,0.29
COc1ccc(NC(=O)c2ccc3nn(CC(=O)Nc4ccc(F)cc4)c(=O)n3c2)cc1,-26%,2.29
Cc1ccc(-c2cccc(C(=O)N3CCC[C@H](c4cc(O)ncn4)C3)c2)nn1,1%,-0.13
Cc1nn(C)c(C)c1S(=O)(=O)N1CC[C@]2(CCN(c3cccnc3)C2)C1,38%,-1.28
Cc1nc(CCNC(=O)c2cn(CCN3CCCCC3)nn2)nc2c1CCC2,-4%,0.5
CN(Cc1ccccc1)C(=O)[C@H]1CCc2n[nH]c(=O)n2CC1,6%,-0.99
O=C(Nc1cccc2ccccc12)C1CCN(S(=O)(=O)c2ccc(Cl)cc2)CC1,-8%,0.94
Cc1cncc(NCc2cnn(C(C)(C)C)c2)c1,-13%,2.06
O=C(NCCc1ccccc1)c1c(-c2ccccc2)c(-c2ccccc2)n[nH]c1=O,-3%,0.42
CC(C)c1ccc(C(=O)N2CCOCC2C2CCCCC2=O)c(O)c1 (stereo not given),-4%,0.67
CCC[C@]1(O)CCC12CCN(C(=O)COCc1ccccc1)CC2,0%,0.05
CCCn1nccc1C(=O)N1CCN2CCN(C)C[C@H]2C1,-6%,0.8
Cc1cc(C(=O)N(CC2CCC2)C[C@H]2CCCO2)cc(C)n1,-13%,1.43

SMILES,% Inhibition,Z score
Cc1nc(N)ncc1C(=O)N1CC[C@H]1c1ccc(F)cc1,-3%,0.42
O=C(NCC1(CO)CC1)NC1CCCC1Oc1ccccc1 (stereo not given),-10%,1.3
COc1c2ccc(C(=O)N3CCC[C@H](S(=O)(=O)c4ccc(F)cc4)C3)cc2nn1C,-23%,2.96
CC(NC1CCc2c(O)cccc21)c1cnn(C(C)C)c1 (stereo not given),-3%,0.27
COC[C@H](NCC(=O)N1CCCCCC1)c1ccc(F)c(F)c1,33%,-3.31
CN(C(=O)C[C@]1(c2ccccc2Cl)CC(=O)N(C2CCCC2)C1=O)C(C1CC1)C1CC1,10%,-1.35
Cc1ccc(NCC(=O)NCC(F)(F)F)cc1C(=O)NC(C)C,0%,0.03
CCCCCN1CC(=O)N[C@@H]1c1ccc(C#N)cc1,-13%,1.42
O=C(O)[C@H]1CN(c2ccc3nnnn3n2)C[C@@H]1c1ccc(F)cc1F,8%,-0.92
Cc1cccc(CCN(C)[C@H]2CS(=O)(=O)C[C@@H]2O)n1,-5%,0.99
CCc1ccc(CC(=O)NC(CC)CC)cc1,-7%,0.71
CC(C)(C)OC(=O)NC[C@H](NC(=O)Nc1ccc(N2CCOCC2)nc1)C1CCCCC1,-19%,2.52
O=C(NCc1ccccc1)c1cc2cc(NC(=O)C3CCC3)ccc2n1Cc1cccc(F)c1,-7%,0.89
COc1ccc(Cl)cc1NC(=O)COc1cc(C)c2c(C)nn(C)c2n1,2%,-0.43
Clc1ccc(COC2CCN(Cc3ccon3)CC2)cc1Cl,-8%,0.74
CC1(C)C(=O)NC(=O)N1Cc1noc(-c2ccoc2)n1,44%,-3.98
CC(=O)N1CCC(CCc2noc(-c3ccc(F)cc3)n2)CC1,-3%,0.51
CCCCC(C(=O)Nc1cc(C)on1)N1CCN(C)CC1C (stereo not given),39%,-5.75
CC(C)C[C@@](C)(CN)NS(=O)(=O)c1ccc(C#N)cc1,1%,-0.09
Cc1noc(C)c1CCC(=O)N1CCC(Oc2nc3c(C)cccc3s2)CC1,-5%,0.72
CC/C=C/CC(=O)N1C[C@H](NC(=O)c2ccccc2F)C[C@H]1C(=O)NCC,-23%,2.03
Cc1ccc(N2C(=O)[C@@H]3[C@H](C)N[C@@]4(C(=O)Nc5ccccc54)[C@@H]3C2=O)cc1,1%,-0.1

SMILES,% Inhibition,Z score
CN(C)C(=O)CN(C)C(=O)CCc1ccc(Cl)c(Cl)c1,1%,-0.08
Cc1ncc(NC(=O)c2occc2C)c(C2CC2)n1,-9%,1.46
CNC(=O)[C@@H]1C[C@H](N)CN1CC(c1ccccc1)c1ccccc1,4%,-0.42
Cc1ccc(NC(=O)N2CCC[C@H](N(CCCN3CCCC3)S(C)(=O)=O)C2)c(C)c1,7%,-1.15
CCN(C[C@H]1CCOC1)C(=O)C1=NN(c2ccccc2)C(=O)CC1,-9%,1.4
CCC(C)NC(=O)CN1CCC[C@@H]1CCc1ccccn1 (stereo not given in full),4%,-0.46
O=C(CS(=O)(=O)c1ccccc1)NC1CCCCC1,-10%,1.19
CN1CCN(CCC(C)(C)NC(=O)c2ccc(-c3ncon3)cc2)CC1,5%,-0.62
Cc1sc(-c2ccoc2)nc1-c1ccc2c(c1)CC(=O)N2C,-15%,1.8
O=C(c1cccnc1)c1ccc(Cl)cc1Cl,2%,-0.18
CN(C)C1(CNC(=O)CCc2ccncc2)CC1,3%,-0.49
CC[C@@H]1[C@@H](C)[C@H](Nc2ccccc2)c2ccccc2N1C(=O)c1ccc(F)cc1,3%,-0.44
CCOC(=O)c1cc(NC(=O)c2cnn(C(C)(C)C)c2)c[nH]1,-3%,0.32
Cc1ccc(Cl)cc1-n1ncc2c(NCc3ccco3)ncnc21,-8%,1.01
O=C(N[C@@H]1CC[C@@H](C(F)(F)F)N(Cc2ccn[nH]2)C1)C(F)(F)F,-7%,0.59
COc1cc(C(=O)N2C[C@H](C)OC3(CCC3)C2)ccc1C,0%,-0.02
C/C=C(\C)CN1CCC(CCC(=O)Nc2ccc3c(c2)OCCO3)CC1,0%,0.05
NS(=O)(=O)Cc1ccc(CNc2ccc3ccc(F)cc3n2)cc1,35%,-4.66
COc1cccc([C@H]2C[C@H](NCc3cn(C)nc3C)C2)c1,-9%,1.22
